Laboratory results published in paper PMC4336329 (PLoS ONE, 2015).
The campaign covered roughly 310,000 compounds. About 14,000 (4.5%) showed an effect of 50% or more. Effects have a minus sign here. The list shows a part of the results.

target: human ether-à-go-go-related gene (hERG) potassium channel (human, UniProt Q12809); test: primary screen, population patch clamp on CHO cells stably expressing hERG
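Also: peak tail current of the secondary pulse compared with the same well before compound.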

human ether-à-go-go-related gene (hERG) potassium channel, sequence (Q12809 whole entry, looked up): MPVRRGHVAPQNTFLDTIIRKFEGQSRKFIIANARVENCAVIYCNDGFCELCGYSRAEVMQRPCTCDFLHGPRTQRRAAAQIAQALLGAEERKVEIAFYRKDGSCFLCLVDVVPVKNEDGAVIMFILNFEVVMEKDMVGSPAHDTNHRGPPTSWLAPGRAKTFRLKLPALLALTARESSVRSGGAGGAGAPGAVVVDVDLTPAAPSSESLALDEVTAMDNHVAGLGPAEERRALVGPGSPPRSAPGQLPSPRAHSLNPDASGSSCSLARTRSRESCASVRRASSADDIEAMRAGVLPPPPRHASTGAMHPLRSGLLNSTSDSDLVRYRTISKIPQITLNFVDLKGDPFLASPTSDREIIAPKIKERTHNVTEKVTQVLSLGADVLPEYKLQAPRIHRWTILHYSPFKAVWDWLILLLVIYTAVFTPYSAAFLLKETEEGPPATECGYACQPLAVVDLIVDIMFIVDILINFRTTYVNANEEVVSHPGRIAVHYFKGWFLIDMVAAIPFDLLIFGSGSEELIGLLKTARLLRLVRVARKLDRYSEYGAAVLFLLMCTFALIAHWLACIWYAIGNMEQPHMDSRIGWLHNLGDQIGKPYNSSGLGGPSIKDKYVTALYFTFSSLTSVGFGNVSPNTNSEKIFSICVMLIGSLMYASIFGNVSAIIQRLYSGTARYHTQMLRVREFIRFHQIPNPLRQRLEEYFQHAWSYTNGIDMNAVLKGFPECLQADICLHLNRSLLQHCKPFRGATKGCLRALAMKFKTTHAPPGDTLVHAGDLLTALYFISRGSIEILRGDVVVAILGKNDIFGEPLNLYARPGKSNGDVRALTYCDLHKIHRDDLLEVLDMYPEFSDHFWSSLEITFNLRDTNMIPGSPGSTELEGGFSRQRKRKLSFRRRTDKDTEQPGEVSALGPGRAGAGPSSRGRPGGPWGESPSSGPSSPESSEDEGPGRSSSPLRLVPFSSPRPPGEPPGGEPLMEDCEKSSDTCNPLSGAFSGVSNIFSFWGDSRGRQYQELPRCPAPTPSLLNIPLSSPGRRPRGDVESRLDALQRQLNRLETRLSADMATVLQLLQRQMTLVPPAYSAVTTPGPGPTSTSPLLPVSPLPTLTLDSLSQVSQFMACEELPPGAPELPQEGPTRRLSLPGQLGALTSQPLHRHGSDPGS

Compound | hERG current change (%, negative = inhibition) at 10uM [%]
O=c1c2ccccc2nc(CSc2ncnc3nc[nH]c23)n1-c1cccc(C(F)(F)F)c1 | -7.66
Cc1ccccc1OCCSc1nnc(C)n1-c1ccccc1 | -5.36
Cc1ccc(NC(=O)CN2C(=O)CSc3ccc(S(=O)(=O)N4CCCCC4)cc32)cc1 | 17.9
C=CCNc1oc(-c2cccs2)nc1C#N | -6.12
NC(=O)CC(NC(=O)c1ccccc1)c1ccc(N2CCN(c3ccccn3)CC2)c([N+](=O)[O-])c1 (stereo not shown) | 7.06
COC(OC)c1nc(SCC(=O)Nc2cccc(Cl)c2)ncc1C(=O)O | 14.5
O=C(NCCN1CCOCC1)c1cnn2c1NC(c1cccs1)CC2C(F)(F)F (stereo not shown) | 1.11
COP(=O)(OC)c1nc(-c2cccc3ccccc23)oc1NCc1ccccc1 | -3.32
CCC(=O)OCCn1c(Br)nc2c1c(=O)[nH]c(=O)n2C | -0.796
COc1ccc(S(=O)(=O)N(CC(=O)N/N=C/c2ccc(C(=O)O)cc2)Cc2ccccc2)cc1OC | 10.9
CCOc1ccc(C(C)=O)cc1CSc1nc2nc(C)cc(C)n2n1 | 20.1
COC(=O)COc1cc(Cl)c(C=O)cc1OC | 19.7
O=C(N/N=C/c1ccc(Cl)cc1)c1cc2c(s1)-c1ccccc1CC2 | 0.145
O=C(CSc1ncnc2ccccc12)c1ccc2c(c1)OCCO2 | -8.58
CCOc1cc2c(cc1/C=C/C(=O)O)OC(C)C2 (stereo not shown) | -0.48
CCn1nnnc1SCC(=O)N1CCc2ccccc21 | 3.69
CN(C)c1ccc(CNc2ccc3c(c2)ncn3C)cc1 | -4.51
COc1ccc(CN(C)C(=O)c2cc(-c3ccccc3)nc3ccc(C)cc23)c(OC)c1OC | -3.99
O=C(O)CN1C(=O)CC(Cc2ccc(Cl)cc2)C1=O (stereo not shown) | -1.01
Cc1coc(NC(=O)CSc2nc(-c3ccncc3)cc(C(F)(F)F)c2C#N)n1 | -0.488
O=C(Nc1ccccc1)Nc1nc2ccccc2s1 | 3.9
COc1cc(CN(C(=O)c2cc3ccccc3oc2=O)C2CCS(=O)(=O)C2)cc(OC)c1OC (stereo not shown) | -18.8

Compound | hERG current change (%, negative = inhibition) at 10uM [%]
CCOc1cc(/C=C2\C(=O)ON=C2C)ccc1OCc1ccccc1 | 13.2
Nc1nnc(-c2cn(-c3ccccc3)nc2-c2ccccc2)o1 | -17.1
Cc1cccc(-n2c(SCC(=O)NCc3ccco3)nnc2-c2ccco2)c1 | -75.7
Cc1ccc2[nH]c3c(c2c1)CCNC3=O | 4.86
O=C(CSc1nc2ccccc2c(=O)n1-c1ccc(OC(F)F)cc1)NCc1cccs1 | -9.5
O=C(CCN1C(=O)c2ccccc2C1=O)Oc1ccc2ccccc2c1 | 3.5
O=C(Cc1ncc(C(F)(F)F)cc1Cl)NCCc1ccccc1 | 10.2
C#Cc1ccc([C@H]2C=C(C(=O)OCC=C)O[C@@H](OCCCCO)C2)cc1 | -17.1
CCOC(=O)C1CCCN(S(=O)(=O)c2ccc3c(c2)C(C)(C)C(=O)N3C)C1 (stereo not shown) | 7.18
O=C(COC(=O)c1ccc(=O)[nH]c1)Nc1cccc(S(=O)(=O)N2CCOCC2)c1 | 18.9
CN1CCN(c2ccc(CNC(=O)c3ccc4c(c3)OCCO4)cc2)CC1 | -3.43
Cc1cc(C)nc(N(C#N)CC(=O)N(c2ccccc2)C(C)C)n1 | 7.15
CC(C)(C)c1ccc(C(CC(=O)O)NC(=O)CSc2ccccc2)cc1 (stereo not shown) | 26.4
N#C/C(=C\N1CCCCC1)S(=O)(=O)c1ccc(Cl)cc1 | 15.6
OCCN(CCCn1c(C(F)(F)F)nc2ccccc21)c1nc(CN2CCCCC2)cs1 | -19
O=C(NCCCn1ccnc1)/C(=C\c1cccnc1)NC(=O)c1ccccc1Br | 5.24
Cn1cccc1/C=C1\CC(C(C)(C)C)C/C(=C\c2cccn2C)C1=O (stereo not shown) | -10.4
COc1cc2c(cc1OC)C(c1cc3cccc(C)c3[nH]c1=O)N(C(=O)c1ccco1)CC2 (stereo not shown) | 0.325
Cc1cc(C)nc(Nc2ccc(N3CCCC3)cc2)n1 | -5.79
Cc1ccc(C(=O)NCCc2ccc(S(N)(=O)=O)cc2)o1 | 16.1
Cl.Fc1ccc2c(c1)nnn2C1CCN(Cc2nnnn2CCc2ccccc2)CC1 | -61.3
